The campaign covered roughly 110,000 compounds. About 230 (0.21%) showed an effect of 50% or more. Some of the results follow.
Each compound was assayed against DPAP1 (Plasmodium falciparum, UniProt Q8IIJ9) (assay: primary screen, percent inhibition; read by cleavage of a fluorogenic dipeptide substrate; higher = more effect of the substance).
Parameters: species or system P. falciparum D10 trophozoite lysates; single well
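Further: 30 min substrate incubation versus DMSO and 10 µM JCP410 controls.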

Chain of DPAP1 (Q8IIJ9 whole entry, looked up): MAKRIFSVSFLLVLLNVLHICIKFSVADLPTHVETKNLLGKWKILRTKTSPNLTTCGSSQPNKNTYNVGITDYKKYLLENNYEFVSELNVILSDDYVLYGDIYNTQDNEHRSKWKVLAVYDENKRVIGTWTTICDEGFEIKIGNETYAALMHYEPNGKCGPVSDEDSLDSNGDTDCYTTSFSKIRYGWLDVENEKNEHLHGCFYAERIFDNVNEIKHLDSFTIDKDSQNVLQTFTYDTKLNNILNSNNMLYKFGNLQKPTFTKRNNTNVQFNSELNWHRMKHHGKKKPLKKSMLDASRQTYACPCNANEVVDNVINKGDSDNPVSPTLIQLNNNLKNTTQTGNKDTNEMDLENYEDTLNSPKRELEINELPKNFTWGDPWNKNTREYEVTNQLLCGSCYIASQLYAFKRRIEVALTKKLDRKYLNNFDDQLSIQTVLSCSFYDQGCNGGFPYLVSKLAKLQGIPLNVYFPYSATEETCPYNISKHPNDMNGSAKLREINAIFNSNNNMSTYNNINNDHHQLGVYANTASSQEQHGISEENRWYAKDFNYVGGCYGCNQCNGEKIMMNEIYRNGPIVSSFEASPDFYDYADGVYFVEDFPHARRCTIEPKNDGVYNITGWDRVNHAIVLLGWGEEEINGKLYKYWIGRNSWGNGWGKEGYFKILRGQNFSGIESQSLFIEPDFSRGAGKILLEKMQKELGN

SMILES	% Inhibition @ 10 uM [%]
COC(=O)c1ccc(CS(=O)(=O)c2ccccc2OC)o1	-0.256
Cc1ccc(C)c(-n2c(-c3ccccc3)cc3c2CC(C)(C)CC3=O)c1	-5.62
O=C(NC(Cc1ccccc1)c1ccc2c(c1)OCCCO2)c1cccs1 (stereo not shown)	-1.28
COc1cc(NC(=O)C23CC4CC(CC(C4)C2)C3)c(OC)cc1NC(C)=O	4.19
CCOc1ccc(-c2nc(C#N)c(N3CCCCCC3)o2)cc1	-1.43
CC(=O)c1ccc(NC(=O)/C=C/c2ccc(Cl)cc2)cc1	-1.62
Cc1ccc2nc3c(O)n(CC(=O)N4CCCC4)ncc-3c2c1	-1.97
O=C1NC(c2ccccc2)=NC1(Nc1ncc(C(F)(F)F)cc1Cl)C(F)(F)F (stereo not shown)	-4.04
COc1cc2cc(=O)n(Cc3ccco3)c(C)c2cc1OC	6.66
CCCC[C@H](NC(=O)C(Cc1c(F)cccc1F)NC(=O)c1ccc(-c2ccccc2Cl)cc1)C(=O)c1nnc(-c2cccnc2)o1 (stereo partly shown)	2.87
CCOC(=O)C1=C(C)N=c2s/c(=C/c3cnn(C)c3C)c(=O)n2C1c1ccc(OC)cc1OC (stereo not shown)	3.81
Cc1ccc(C2=NN(CC(=O)NCc3ccc(F)cc3)C(=O)CC2)cc1	6.86
CN(C)CCN(C)Cc1ccc(F)c(F)c1	-2.54
CCCOc1ccc(C2c3c(-c4cc(C)ccc4O)n[nH]c3C(=O)N2CCOC)cc1 (stereo not shown)	0.558
Cc1ccc(NC(=O)CCN2CCN(Cc3ccccc3)CC2)cc1Br	-1.95
Cc1nc2ncnn2c(C)c1CCC(=O)N1CCN(Cc2ccccc2)CC1	2.93
O=C(Cn1c2ccccc2c2cnnc(O)c21)NCc1ccccn1	-0.281
N#Cc1ccc(NC(=O)c2ccc(Cl)cc2Cl)cc1	2.17
CC(=O)c1ccc(NC(=O)c2ccncc2)cc1	-3.45
CNC(=O)C1CCN(c2nc3c(C)cc(C)cc3s2)CC1	3.4
Cc1ccccc1C(OCCN(C)C)C1CCCCC1 (stereo not shown)	3.19
Cc1nn(C)cc1CNC(=O)c1nn2c(C(F)(F)F)cc(-c3cccs3)nc2c1Br	17.1
COC(=O)CNc1nc(Cl)nc(NC2CCCCC2)n1	-5.48
CCOc1ccc(N/C=C2/C(=O)NC(=O)N(c3cccc(Cl)c3)C2=O)cc1	-3.46
O=C(N/C(C(=O)N1CCOCC1)=C(\Sc1nc2ccccc2o1)c1ccccc1)c1ccccc1	-3.26

SMILES	% Inhibition @ 10 uM [%]
Cc1ccc(NC(=O)C2CC3c4ccccc4C2c2ccccc23)c(C)c1 (stereo not shown)	-0.0217
O=C(NCc1ccncc1)C(O)(c1ccccc1)c1ccccc1	2.8
CC(=O)C(C(C)=O)=C(N)NC(=O)c1ccccc1	-4.24
O=C(O)CCN1C(=O)C2CC=C(Cl)CC2C1=O (stereo not shown)	1.05
Cc1ccc(Cl)cc1NC(=O)c1c(Br)c(C)nn1C	-2.8
COc1cccc2c1cc1c(=O)n(CC(=O)N3CCN(c4ccccn4)CC3)nc(C)n12	-3.47
O=C1N/C(=C/c2ccc(N3CCCCC3)cc2F)C(=O)N1Cc1ccccc1	-7.9
CCOC(=O)N1CCc2c(sc3c2c(=O)n(Cc2ccccc2)c(=O)n3Cc2ccccc2C)C1	-1.21
Cc1cccc(CCNC(=O)CCc2nnc3n(CCc4ccccc4)c(=O)c4ccccc4n23)c1	2.6
NC(=O)c1cc(NC(=O)c2cc3ccccc3cc2O)cc(C(N)=O)c1	0.774
Cc1ccc(S(=O)(=O)c2nc(S(C)(=O)=O)sc2N2CCCCC2C)cc1 (stereo not shown)	2.76
COc1ccc(/C=C\c2onc(C)c2S(=O)(=O)N2CCC(C(=O)Nc3cccc(C)n3)CC2)cc1	-4.96
Nc1nc(OCC(F)(F)C(F)F)cc(-c2ccccc2)n1	3.95
COc1ccc(C(=O)N(CCCN(C)C)c2nc3ccc(F)cc3s2)cc1	-1.07
CC(=O)N1N=C2CCCCC2C1C(C)C (stereo not shown)	-1.56
O=C(NCC1CCN(Cc2ccc(Cl)cc2)CC1)c1cc2ccc3cccnc3c2[nH]1	-0.0157
COc1ccc(CCNC(=O)c2ccc(CS(=O)c3ccc(Br)cc3)o2)cc1OC (stereo not shown)	-9.16
O=C(COc1ccc(F)cc1)Nc1c(C(=O)N2CCC(N3CCCCC3)CC2)oc2ccccc12	0.0065
Nc1ccc(C(=O)CC2(O)C(=O)Nc3c(Cl)cc(Cl)cc32)cc1 (stereo not shown)	-2.85
Cn1c(=O)c2sccc2n2c(CCCC(=O)NCCOc3cccc(C(F)(F)F)c3)nnc12	0.331
O=S(=O)(c1ccccc1)N1CCC(Cc2ccccc2)CC1	-6.44
C/N=C1\S/C(=C\c2ccc(OC)cc2)C(=O)N1C	3.32
CCCc1[nH]nc2c1C(c1cc(Cl)cc(Cl)c1O)C(C#N)=C(N)O2 (stereo not shown)	2.3
CCOC(=O)c1cn(CC)c2cc(N3CCN(C)CC3)c(F)cc2c1=O	-4.32
CCc1ccc(-n2nc(C)c3c(C)cc(=O)n(CC(=O)NC(C)c4ccccc4)c32)cc1 (stereo not shown)	4.15

SMILES	% Inhibition @ 10 uM [%]
CC1=CN2C(=N)/C(=C/c3cc(C)n(-c4ccc(C)c(Cl)c4)c3C)C(=O)N=C2S1	3.87
N#CC1=C(N)OC2=C(C(=O)CC(c3ccccc3)C2)C1c1ccc(Br)o1 (stereo not shown)	0.605
Cc1ccc(N2C(=O)NC(=O)/C(=C/N3CCN(C)CC3)C2=O)cc1C	-3.83
O=[N+]([O-])c1ccccc1S(=O)(=O)N1CCNCC1	-8.3
CN1C(=O)[C@@H]2[C@H](C1=O)[C@H](C(=O)c1ccccc1)N1C=Cc3ccccc3[C@@H]21	-3.45
N#CCNC(=O)[C@H](Cn1ccnc1)NC(=O)OCc1ccccc1	-8.81
C#CCSc1nc2c(c(=O)n1CC=C)C1(CCCC1)Cc1ccccc1-2	-2.2
CC(=O)c1ccc(NC(=O)c2ccc(S(=O)(=O)N3CCCCCC3)cc2)cc1	-9.2
Nc1[nH]nc(Cc2ccccc2)c1-c1ccccc1	-1.99
O=C(N/C(=C\c1ccco1)C(=O)N1CCCCC1)c1cccc(Br)c1	0.746
CCOc1ccc(CCNc2ncnc3onc(-c4ccc(F)cc4)c23)cc1	6.18
O=C1c2cccc3c(Br)ccc(c23)C(=O)N1c1nc[nH]n1	2.4
CCN1CCC(NCc2ccc(F)cc2)CC1	-0.0908
CCCNC(=O)C(CC)n1ncn2c(cc3occc32)c1=O (stereo not shown)	1.38
COc1ccc(C2Sc3nncn3N2Cc2ccc(C(=O)c3ccccc3)cc2)cc1 (stereo not shown)	11.2
CC(C)NC(=O)C1(c2ccccc2)CCCC1	2.38
Cc1cc(NC(=O)CNC(C)(C)C)c2ccccc2n1	0.266
CC1(C)CC(=O)C2=C(C1)OC1=C(C(=O)CC(C)(C)C1)C2c1cc(Cl)ccc1O	6.22
CCNC(=O)/C(=C\c1ccccc1)NC(=O)c1ccccc1OC	-0.864
COc1ccc(S(=O)(=O)Nc2cc(C)cc(C)c2)cc1	0.135
N#CC1(c2ccc(OCc3ccccc3)cc2)CCC(=O)N1Cc1ccccc1 (stereo not shown)	4.06
C[C@@H]1CN(C2=CC(=O)OC23CCCCC3)C[C@H](C)O1	1.74
Cc1nc(Nc2c3ccccc3nc3ccccc23)sc1C	-1.69
Clc1ccc(COc2cccc(CNCc3cccnc3)c2)cc1	-1.43
CCN1CCN(C(=O)c2cnn(-c3ccc(F)cc3)c2C2CCN(C(=O)OC(C)(C)C)CC2)CC1	1.06

SMILES	% Inhibition @ 10 uM [%]
COc1cccc(NC(=O)COc2cc(C)ccc2C(C)C)c1	0.683
Cc1cc(NS(=O)(=O)c2ccc(NC(N)=S)cc2)no1	1.83
CCOC(=O)N1CCC(NC(=O)c2cc3c(O)nc4ccccc4c3s2)CC1	-2.29
COc1ccccc1S(=O)(=O)Cc1ccc(C(=O)NCCN2CCCCCC2)o1	-4.96
Nc1ccc(C(=O)NCCc2ccccc2)cc1	3.79
CCCNC(=O)c1nc(C)c(C)nc1C(=O)Nc1cccc(F)c1	0.147
CCOC(=O)C1=C(C)N(Cc2ccccc2)C(=O)NC1c1ccccc1F (stereo not shown)	-0.053
C=CCn1c(=N)c(C#N)cc2c(=O)n3cc(C)ccc3nc21	3.6
CCOc1ccc(CCNCc2c(C(=O)O)c(C)n(Cc3ccc(F)cc3Cl)c2C)cc1	-9.31
COc1cccc(-c2cn3c(n2)sc2cc(C(=O)O)ccc23)c1	-1.6
CC(C)C(=O)Nc1c2c(nn1-c1cccc(Cl)c1)CS(=O)(=O)C2	5.63
Cc1ccc(S(=O)(=O)N(CCc2ccccc2)CC(=O)NC2CC2)cc1	-5.01
O=C(Cc1c(O)nc2ccccc2c1O)NCCO	-1.69
CC1CCCN(c2nc3c(-c4cccc(C(F)(F)F)c4)nnn3c3ccccc23)C1 (stereo not shown)	-3.14
CCc1[nH]nc2c1C(c1ccc(SC)cc1)C(C#N)=C(N)O2 (stereo not shown)	-1.07
CCN1CCC(N(CCc2ccccc2)Cc2ccccc2)CC1	4.74
Brc1ccc(CN2CCN(C/C=C/c3ccccc3)CC2)cc1	-3.65
CCOC(=O)N1CCC(N2C(=O)c3ccc(C(=O)NCc4cccc(Cl)c4)cc3C2=O)CC1	0.708
NS(=O)(=O)c1ccc(CC/N=C2\C=C(O)OC23CCCCC3)cc1	-5.38
CCC(O)(C#CCN1CCOCC1)CC	-2.32
O=C(c1ccc(Br)o1)n1cnc2ccccc21	-6.6
COc1ccc(Cn2c(C(=O)O)c(CNCCc3ccc(Cl)cc3)c3ccc(C)cc32)cc1	-8.45

Source: PMC6919601, “Identification of Plasmodium dipeptidyl aminopeptidase allosteric inhibitors by high throughput screening” (PLoS ONE, 2019)
